{"source": "PubChem BioAssay AID1347165", "about": "(National Center for Advancing Translational Sciences (NCATS), 2019)", "note": "The whole screen tested about 220,000 compounds, of which about 5,700 (2.6%) were called active. Inconclusive results, whose numbers are uncertain, are shown with a selection of clear calls. The call rests on the fitted dose curve; in most records, active means well fitted inhibition curve with a large enough effect; inconclusive means small, poorly fitted or top-dose-only effect; inactive means no such curve, though single readings can be large or run the other way. Potencies of inconclusive entries are doubtful fits and often do not repeat. Potency means the concentration at half of the fitted maximal effect; tags describe the fitted curve by direction and shape.", "data": [{"molecular_target": "Lysine-specific demethylase 5B (Homo sapiens) (UniProt Q9UGL1)", "sequence (Q9UGL1 whole entry, looked up)": "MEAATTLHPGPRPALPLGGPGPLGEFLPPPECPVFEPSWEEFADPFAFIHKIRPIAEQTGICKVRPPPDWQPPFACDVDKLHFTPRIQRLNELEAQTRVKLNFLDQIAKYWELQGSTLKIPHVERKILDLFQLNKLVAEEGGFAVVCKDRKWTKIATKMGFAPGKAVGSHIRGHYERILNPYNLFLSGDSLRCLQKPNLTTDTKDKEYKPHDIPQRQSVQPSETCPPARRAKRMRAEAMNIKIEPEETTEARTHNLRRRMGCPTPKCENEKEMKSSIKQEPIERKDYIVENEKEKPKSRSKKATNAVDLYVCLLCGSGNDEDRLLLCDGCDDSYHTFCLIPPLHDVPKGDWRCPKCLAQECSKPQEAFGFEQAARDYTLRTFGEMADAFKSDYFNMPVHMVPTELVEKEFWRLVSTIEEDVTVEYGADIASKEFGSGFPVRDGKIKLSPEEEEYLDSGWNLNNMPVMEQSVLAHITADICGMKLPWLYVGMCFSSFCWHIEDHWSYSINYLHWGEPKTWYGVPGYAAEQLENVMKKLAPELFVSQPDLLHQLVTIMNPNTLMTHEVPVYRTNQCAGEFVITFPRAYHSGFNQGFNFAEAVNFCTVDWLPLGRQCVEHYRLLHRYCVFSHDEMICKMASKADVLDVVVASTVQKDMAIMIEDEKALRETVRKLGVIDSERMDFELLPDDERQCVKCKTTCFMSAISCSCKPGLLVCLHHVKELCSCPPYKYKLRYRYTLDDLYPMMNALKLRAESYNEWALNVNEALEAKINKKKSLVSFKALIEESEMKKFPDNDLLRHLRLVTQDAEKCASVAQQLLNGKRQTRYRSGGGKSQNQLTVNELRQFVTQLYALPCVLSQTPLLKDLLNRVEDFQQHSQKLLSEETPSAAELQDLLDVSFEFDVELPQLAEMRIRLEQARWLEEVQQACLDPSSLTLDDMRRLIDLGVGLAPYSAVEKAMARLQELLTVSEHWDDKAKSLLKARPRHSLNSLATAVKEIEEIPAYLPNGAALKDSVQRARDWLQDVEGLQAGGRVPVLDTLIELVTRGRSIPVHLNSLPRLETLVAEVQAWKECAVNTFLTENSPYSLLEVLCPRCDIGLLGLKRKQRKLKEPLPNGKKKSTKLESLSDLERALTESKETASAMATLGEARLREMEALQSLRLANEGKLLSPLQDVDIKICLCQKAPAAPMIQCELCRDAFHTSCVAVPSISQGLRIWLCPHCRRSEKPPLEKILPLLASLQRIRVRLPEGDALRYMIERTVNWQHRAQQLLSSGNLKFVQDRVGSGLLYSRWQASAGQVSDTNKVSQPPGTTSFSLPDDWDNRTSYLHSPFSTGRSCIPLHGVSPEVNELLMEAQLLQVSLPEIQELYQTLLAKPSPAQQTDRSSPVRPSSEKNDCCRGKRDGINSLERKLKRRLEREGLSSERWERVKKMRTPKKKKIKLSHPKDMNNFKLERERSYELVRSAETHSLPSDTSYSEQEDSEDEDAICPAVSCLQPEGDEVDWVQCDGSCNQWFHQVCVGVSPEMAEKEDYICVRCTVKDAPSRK", "test": "Primary screen for KDM5B Histone Demethylases FDH-coupled qHTS; further: nearly all actives have a fitted effect of over 70% in size; on activity change, negative = inhibition: 0% is about no effect", "settings": "FDH-coupled NADH fluorescence (FDH is formaldehyde dehydrogenase); activity change, negative = inhibition: at 57.7 µM (top of the series) unless noted", "procedure,_shortened": "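Compound dilutions met 200 nM (final) KDM5BΔAP for 10 min at room temperature before substrate addition. The substrate mix held 12.5 µM H3K4me3 with cofactors 25 µM α-ketoglutarate and 50 µM Fe²⁺. NADH signal gain over 30 min defined activity.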", "values": [{"smiles": "O=C(c1c[nH]c2ccccc12)N1CCN(C(=O)C2CC2)CC1", "Potency": "inconclusive: 22.4 µM [inhibitor, single point]"}, {"smiles": "COc1ccc2c(c1)CC/C2=N\\OC(=O)c1cc(SC)ccc1Cl", "Potency": "inconclusive: 11.2 µM [inhibitor, partial curve, poor fit]"}, {"smiles": "CCn1c(C(=O)NCc2ccccc2Br)cc2oc3ccccc3c21", "Potency": "inconclusive: 31.6 µM [inhibitor, partial curve, poor fit]"}, {"smiles": "CCCn1cnc2cc(NCc3ccccc3OCC)ccc21", "Potency": "inconclusive: 15.8 µM [inhibitor, partial curve, poor fit]"}, {"smiles": "COC(=O)c1ccc(C(=O)OC)c(NC(=O)c2cc3nc(-c4ccc(C)cc4)cc(C(F)(F)F)n3n2)c1", "Potency": "inconclusive: 28.2 µM [inhibitor, single point]"}, {"smiles": "CC(=O)N1CCC(N[C@@H]2C[C@H](Cn3cc(-c4cccnc4)nn3)[C@@H](O)[C@H]2O)CC1", "Potency": "inconclusive: 15.8 µM [inhibitor, partial curve]"}, {"smiles": "CCCNC(=O)Cn1c(=O)c2cccn2c2cccnc21", "Potency": "inconclusive: 20 µM [inhibitor, partial curve, poor fit]"}, {"smiles": "O=[S+]1([O-])NC2(CCCN(Cc3cccc4ccccc34)C2)CNc2ccccc21", "note": "(centres undefined)", "Potency": "inconclusive: 35.5 µM [inhibitor, single point]"}, {"smiles": "COc1ccc(C2Cn3nnc(C(=O)N4CCN(C(=O)c5ccc(F)cc5Cl)CC4)c3CO2)cc1", "note": "(centres undefined)", "Potency": "inconclusive: 31.6 µM [inhibitor, single point]"}, {"smiles": "CC(C)[C@@H](N)C(=O)N1CCC(n2nccc2NC(=O)c2cccc(F)c2)CC1", "Potency": "inconclusive: 5.01 µM [inhibitor, partial curve]"}, {"smiles": "Cc1ccc2c(Cl)c(C(=O)NCc3ccco3)sc2c1", "Potency": "inconclusive: 20 µM [inhibitor, single point]"}, {"smiles": "COc1ccsc1NC(=O)OCc1ccc(Cl)cc1", "Potency": "inconclusive: 22.4 µM [inhibitor, partial curve, poor fit]"}, {"smiles": "CC(C)CCn1c(Oc2ccccc2F)nc2c1c(=O)n(C)c(=O)n2C", "Potency": "inconclusive: 22.4 µM [inhibitor, single point]"}, {"smiles": "CN1CCCN(C(=O)CCC[C@@H]2[C@H]3CCCN4CCC[C@@H](CN2Cc2cccnc2)[C@@H]34)CC1", "Potency": "active: 22.4 µM"}, {"smiles": "CCC(=O)Nc1ccc(C2(C(=O)N3CCN(c4ccccn4)CC3)CCCCC2)cc1", "Potency": "inconclusive: 15.8 µM [inhibitor, partial curve, poor fit]"}, {"smiles": "CC(=O)c1ccc(NC(=O)CSc2cn(CC(=O)N(C(C)C)C(C)C)c3ccccc23)cc1", "Potency": "inconclusive: 12.6 µM [inhibitor, partial curve, poor fit]"}, {"smiles": "COc1ccc(CCN2CCC(CN(C)Cc3ccc(C#CCCO)cc3)CC2)cc1", "Potency": "inactive"}, {"smiles": "Cc1oc(-c2ccccc2)nc1C(=O)Nc1cccc(F)c1", "Potency": "inactive"}, {"smiles": "O=C(Nc1cccc(F)c1)Nc1ccnn1C1CCN(C(=O)C2CCC2)CC1", "Potency": "inactive"}, {"smiles": "COc1ncccc1-c1cc(-c2ccccc2)nc2c(C)noc12", "Potency": "inconclusive: 56.2 µM [inhibitor, single point]"}, {"smiles": "O=C(NCc1ccccn1)c1ccc(-c2ccc(N3CCCCC3)nc2)cc1", "Potency": "active: 15.8 µM"}, {"smiles": "O=C1/C(=C/c2ccc3ccccc3c2)CCc2ccccc21", "Potency": "inactive"}, {"smiles": "CCCn1c2ccccc2c2cnn(CC(=O)O)c(=O)c21", "Potency": "inconclusive: 22.4 µM [inhibitor, partial curve, poor fit]"}, {"smiles": "Cc1cc2c(cc1NS(=O)(=O)c1ccc(NC(=O)CC(C)C)cc1)n(C)c(=O)c(=O)n2C", "Potency": "inconclusive: 35.5 µM [inhibitor, partial curve, poor fit]"}, {"smiles": "N#Cc1ccc(CNC2(Cc3cc(COc4ccccc4)on3)COC2)cc1", "Potency": "inconclusive: 31.6 µM [inhibitor, single point]"}, {"smiles": "CCNC(=O)CC1=CSC2=NC(C)=C(C(=O)Nc3ccccc3)C(c3ccc(F)cc3)N12", "note": "(centres undefined)", "Potency": "inconclusive: 31.6 µM [inhibitor, partial curve, poor fit]"}, {"smiles": "COc1ccc(CN2Cc3[nH]cnc3C[C@H]2C(=O)NCc2ccco2)cc1", "Potency": "inconclusive: 25.1 µM [inhibitor, partial curve]"}, {"smiles": "CCCCn1cc(S(=O)(=O)c2ccc(OC)cc2)c(=O)c2cc(F)c(N3CCOCC3)cc21", "Potency": "inconclusive: 31.6 µM [inhibitor, partial curve, poor fit]"}, {"smiles": "CC1(C)CC(=O)C2=C(C1)Nc1nc(SCc3ccccc3)nn1C2c1cccs1", "note": "(centres undefined)", "Potency": "inconclusive: 39.8 µM [inhibitor, single point]"}, {"smiles": "COc1ccc(CCNC(=O)CCc2c(C)nc3c4cccnc4nn3c2C)cc1OC", "Potency": "inconclusive: 31.6 µM [inhibitor, partial curve, poor fit]"}, {"smiles": "O=c1ccc(CN2CCOCC2)cn1CC1CC1", "Potency": "inactive"}, {"smiles": "CN(C)c1nc2c(c(=O)[nH]1)CCN(Cc1ccc(Cl)cc1F)CC2", "Potency": "inactive"}, {"smiles": "COc1ccc(NC(=O)c2ncn(-c3ccccc3)n2)cc1Cl", "Potency": "inconclusive: 50.1 µM [inhibitor, single point]"}, {"smiles": "CCc1ccc(-n2nc(C)c3c(C)cc(=O)n(CC(=O)Nc4cc(C)ccc4C)c32)cc1", "activity change, negative = inhibition": "inconclusive: -35.6% [inhibitor]"}, {"smiles": "C=C(C)Cn1c(SCCc2ccccc2)nc2c1c(=O)n(C)c(=O)n2C", "Potency": "inactive"}, {"smiles": "Cc1ccc(C2=NC3(CCN(C(=O)Cc4ccc(Cl)cc4)CC3)ON2)cc1", "Potency": "inactive"}, {"smiles": "CC(C)(C)CC(=O)N1CC[C@@H](CC(=O)O)[C@@H](CCN2CCN(c3ccccn3)CC2)C1", "Potency": "inconclusive: 39.8 µM [inhibitor, single point]"}, {"smiles": "Cc1nnsc1C(=O)Oc1ccc(Cl)cc1", "Potency": "inconclusive: 35.5 µM [inhibitor, single point]"}, {"smiles": "O=C(c1ccc(F)c(F)c1)N1CCC2(CC1)NC(=O)N(Cc1ccc(F)cc1)C2=O", "Potency": "inactive"}, {"smiles": "Cc1ccc(C)c(N2CC(c3nc4ccccc4[nH]3)CC2=O)c1", "note": "(centres undefined)", "Potency": "inactive"}, {"smiles": "Cc1ccc(Nc2nc(C(=O)OCC(=O)c3ccccc3)cs2)cc1", "Potency": "inactive"}, {"smiles": "CC1(c2ccccc2)C=C(c2ccccc2)Oc2ccccc21", "note": "(centres undefined)", "Potency": "inactive"}, {"smiles": "CC(=O)c1c(C)[nH]c(C(=O)N2CCN(c3ccccn3)CC2)c1C", "Potency": "inconclusive: 39.8 µM [inhibitor, single point]"}, {"smiles": "COc1ccc(S(=O)(=O)c2c(Nc3ccc(C)cc3C)sc(C(=O)c3ccc(F)cc3)c2N)cc1", "Potency": "inconclusive: 15.8 µM [inhibitor, partial curve, poor fit]"}, {"smiles": "Cc1cc(C(=O)N2CCN(c3cccc(Cl)c3)CC2)c2c(C)nn(-c3ccccc3Cl)c2n1", "Potency": "inconclusive: 31.6 µM [inhibitor, single point]"}, {"smiles": "CN(Cc1ccccc1)C(=O)C[C@@H]1CCNC[C@@H]1Cc1cc(CN2CCCCC2)on1", "Potency": "inactive"}, {"smiles": "O=C(CCC1CCN(S(=O)(=O)c2ccccc2)CC1)NCc1ccco1", "Potency": "inactive"}, {"smiles": "Cc1cc(-n2c(C)cc(-c3csc(CC(=O)Nc4ccccc4C)n3)c2C)no1", "Potency": "inactive"}, {"smiles": "Cc1ccc(-c2cc(C(=O)O)c3ccccc3n2)s1", "Potency": "inconclusive: 28.2 µM [inhibitor, partial curve, poor fit]"}, {"smiles": "O=C(CCC1CCCC1)Nc1nc2ccccc2s1", "Potency": "inactive"}, {"smiles": "CCOC(=O)CSc1nc2ccc(NC(=O)COc3ccc(F)cc3)cc2s1", "Potency": "inconclusive: 28.2 µM [inhibitor, single point]"}, {"smiles": "CCOC(=O)CCNC(=O)N1CCc2c(nc(-c3ccc(F)cc3)[nH]c2=O)C1", "Potency": "inconclusive: 22.4 µM [inhibitor, single point]"}, {"smiles": "COc1cccc(-c2cc3c(=O)n(CCNC(=O)c4c(F)cccc4F)ccn3n2)c1", "Potency": "inconclusive: 17.8 µM [inhibitor, partial curve, poor fit]"}, {"smiles": "C=CCNC(=O)C(C)OC(=O)c1cc2ccc(OC)cc2nc1C", "note": "(centres undefined)", "Potency": "inconclusive: 1.78 µM [inhibitor, partial curve, poor fit]"}, {"smiles": "Cc1ccc2c(C(=O)N(C)C)cnn2c1", "Potency": "active: 31.6 µM"}, {"smiles": "Cc1ccc(C(=O)NCc2nnc3ccc(-c4ccccc4)nn23)s1", "Potency": "inconclusive: 31.6 µM [inhibitor, partial curve, poor fit]"}, {"smiles": "Cn1ccc2c(OCC(=O)Nc3ccc(OC(F)(F)F)cc3)cccc2c1=O", "Potency": "inconclusive: 22.4 µM [inhibitor, single point]"}, {"smiles": "NC(=O)CN1CCC(C(=O)NCc2cn3cccnc3n2)CC1", "Potency": "active: 28.2 µM"}, {"smiles": "Cc1ccc2[nH]c(=O)c(CN(C)S(C)(=O)=O)cc2c1", "Potency": "inconclusive: 35.5 µM [inhibitor, single point]"}, {"smiles": "COc1ccc(-c2nc(-c3nnn4c3COC(c3ccc(C)cc3)C4)no2)c(OC)c1", "note": "(centres undefined)", "Potency": "active: 20 µM"}, {"smiles": "COC(=O)c1cc(OC)c(OC)cc1NC(=O)c1cc(C(C)(C)C)oc1C", "Potency": "inconclusive: 31.6 µM [inhibitor, partial curve, poor fit]"}, {"smiles": "CCC(C)c1ccc(NC(=O)CCc2ncc(-c3ccccc3F)o2)cc1", "note": "(centres undefined)", "Potency": "inactive"}, {"smiles": "O=C(NC1CCC1)C1CCCN(C2CCN(C3Cc4ccccc4C3)CC2)C1", "note": "(centres undefined)", "Potency": "inactive"}, {"smiles": "N#Cc1cccc(NC(=O)NCCc2ccccn2)c1", "Potency": "inactive"}, {"smiles": "CC(C)CC(=O)N1CCC(N2CCCCCC2)CC1", "Potency": "inconclusive: 39.8 µM [inhibitor, single point]"}, {"smiles": "Cn1cccc1Cc1nnc(SCC(=O)Nc2ccc(F)cc2F)n1C", "Potency": "inactive"}, {"smiles": "COCCN(Cc1ccsc1)Cc1cn[nH]c1-c1ccc(F)cc1", "Potency": "inactive"}, {"smiles": "CCCSc1ncc(Cl)c(C(=O)N(Cc2ccccc2)c2ccc(OC)cc2)n1", "Potency": "inactive"}, {"smiles": "COc1ccc2ccccc2c1C=C(C#N)c1ccccn1", "Potency": "inconclusive: 25.1 µM [inhibitor, partial curve, poor fit]"}]}]}
